Assay results: publication PMC6639382, “Structural mechanism of synergistic activation of Aurora kinase B/C by phosphorylated INCENP” (Nature Communications, 2019)

Target: T1, Aurora kinase C kinase domain (truncation not stated for this experiment), phosphorylated
T1 chain: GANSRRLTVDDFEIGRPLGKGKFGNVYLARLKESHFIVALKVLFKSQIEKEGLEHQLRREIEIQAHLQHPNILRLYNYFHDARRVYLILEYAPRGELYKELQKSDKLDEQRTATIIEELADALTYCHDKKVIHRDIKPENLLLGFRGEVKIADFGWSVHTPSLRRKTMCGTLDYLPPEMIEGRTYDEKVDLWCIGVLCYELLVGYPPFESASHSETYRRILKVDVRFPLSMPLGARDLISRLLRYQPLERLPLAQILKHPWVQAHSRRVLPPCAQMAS
Assay: native mass spectrometry (native ESI-MS)
Details: chain shown with the change; concentration of ca. 10 µM; same gentle ionisation conditions; parent: 0

other: % unbound AURKC (% unbound AURKC): 33
B1: INCENP IN-box (residues 835–903), phosphorylated on the TSS motif, Q9NQS7-1 S894A (protein)
chain: MEAHPRKPIPTWARGTPLSQAIIHQYYHPPNLLELFGTILPLDLEDIFKKSKPRYHKRTSAAVWNSPPLQ
